In all, about 310,000 compounds went through this assay and about 2,200 (0.71%) showed an effect of 50% or more. Effects have a minus sign here. Some of the results follow.
These compounds were tested against human ether-à-go-go-related gene (hERG) potassium channel (human, UniProt Q12809) (assay: primary screen, population patch clamp on CHO cells stably expressing hERG).
human ether-à-go-go-related gene (hERG) potassium channel, sequence (Q12809 whole entry, looked up): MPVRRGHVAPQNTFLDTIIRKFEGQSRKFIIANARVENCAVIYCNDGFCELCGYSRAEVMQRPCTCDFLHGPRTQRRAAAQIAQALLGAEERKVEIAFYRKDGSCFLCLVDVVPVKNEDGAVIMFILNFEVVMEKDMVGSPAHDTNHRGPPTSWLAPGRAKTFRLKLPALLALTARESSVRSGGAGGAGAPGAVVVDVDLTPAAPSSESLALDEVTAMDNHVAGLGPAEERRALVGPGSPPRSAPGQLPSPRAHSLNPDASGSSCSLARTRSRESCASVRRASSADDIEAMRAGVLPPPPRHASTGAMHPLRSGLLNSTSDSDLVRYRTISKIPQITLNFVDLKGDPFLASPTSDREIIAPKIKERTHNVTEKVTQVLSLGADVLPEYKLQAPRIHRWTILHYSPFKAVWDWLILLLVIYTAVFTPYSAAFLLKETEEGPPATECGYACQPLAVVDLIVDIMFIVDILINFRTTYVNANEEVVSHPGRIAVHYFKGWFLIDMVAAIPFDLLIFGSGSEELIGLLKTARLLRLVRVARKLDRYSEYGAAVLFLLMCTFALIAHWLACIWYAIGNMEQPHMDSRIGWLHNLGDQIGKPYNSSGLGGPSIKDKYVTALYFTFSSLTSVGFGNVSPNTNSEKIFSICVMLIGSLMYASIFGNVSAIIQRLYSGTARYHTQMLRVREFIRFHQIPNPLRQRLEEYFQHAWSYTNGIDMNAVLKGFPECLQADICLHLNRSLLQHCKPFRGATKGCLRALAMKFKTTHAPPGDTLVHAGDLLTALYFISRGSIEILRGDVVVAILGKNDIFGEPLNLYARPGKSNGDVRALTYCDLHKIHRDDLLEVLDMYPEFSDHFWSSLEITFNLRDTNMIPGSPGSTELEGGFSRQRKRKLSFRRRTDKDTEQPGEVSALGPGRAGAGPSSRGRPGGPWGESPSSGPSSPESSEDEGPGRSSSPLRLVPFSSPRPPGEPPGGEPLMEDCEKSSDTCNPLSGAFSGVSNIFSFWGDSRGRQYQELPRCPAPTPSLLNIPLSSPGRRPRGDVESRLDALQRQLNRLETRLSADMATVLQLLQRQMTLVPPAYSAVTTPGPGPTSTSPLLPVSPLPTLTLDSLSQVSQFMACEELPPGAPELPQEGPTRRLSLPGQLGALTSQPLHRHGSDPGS

SMILES | hERG current change (%, negative = inhibition) at 1uM
COc1ccccc1N1CCN(C(=O)c2cc(C3CC3)on2)CC1 | -9.56%
Cc1c(C)c2ccc(OCC(=O)N3CCC[C@@H]3C(=O)O)c(C)c2oc1=O | 15.7%
Cc1ccc(C(=O)C2=C(O)C(=O)N(Cc3cccnc3)C2c2ccc(Cl)cc2)o1 (centres unmarked) | 14.8%
COc1cc(/C=C(\C#N)C(=O)Nc2ccccc2)ccc1OCCN1CCOCC1 | 1.93%
Cc1ccc(NC(=O)c2ccccc2NS(=O)(=O)c2ccc(Cl)s2)cc1S(=O)(=O)N1CCOCC1 | 11.8%
COc1cccc(C(=O)Nc2nc(C)cs2)c1 | 7.33%
O=S(=O)(NCc1cn2ccccc2n1)c1cc(F)ccc1F | 11.1%
O=C(COc1ccc([N+](=O)[O-])cc1)NNC(=O)Nc1cccc(F)c1 | -4.52%
CCOC(=O)c1nn(-c2ccc(C)c(C)c2)c(=O)c2c(N)scc12 | -4.42%
N#Cc1ccc(CSc2nnc(-c3cccnc3)n2-c2ccccc2)cc1 | -26.5%
CCCn1c(SCC(=O)NC)nnc1C(C)C | 12.7%
O=C1NCCN(Cc2c(F)cccc2Cl)C1CC(=O)N1CCCO1 (centres unmarked) | 17.5%
CSc1nnc(-c2cccc(C)c2)n1N | 12.5%
N/C(=N\OC(=O)CCC(=O)O)c1ncc(C(F)(F)F)cc1Cl | 14.3%
O=C(CSc1nc(SCC(=O)NCc2ccccc2)n(-c2ccccc2)n1)NCc1ccccc1 | -7.14%
COc1cc(OC)c(C(=O)Nc2ccc(C(=O)c3ccccc3)cc2)cc1OC | 12.5%
Cc1cccc(OCC(=O)NNC(=O)c2cccs2)c1 | 9.68%
O=C(CCCn1c(=O)[nH]c2ccsc2c1=O)N1CCN(c2ccccn2)CC1 | 13.5%
O=C(Nc1cc(Cl)ccc1Cl)Nn1cnnc1 | 17.9%
O=C(CCC1CCN(C(=O)c2cccc(Cl)c2F)CC1)Nc1ccccc1 | -1.08%
CCCCNC(=O)c1ccccc1NC(=O)CCC | 1.34%
CC(C)CC(NC(=O)c1ccc(C#CC(C)(C)O)s1)C(=O)O (centres unmarked) | 19.4%
CCOC(=O)c1c(NS(C)(=O)=O)sc2c1CCC(C)C2 (centres unmarked) | 10.4%

SMILES | hERG current change (%, negative = inhibition) at 1uM
COC(=O)C1=C(c2cccc(OCc3ccccc3)c2)C[C@@H]2CC[C@H]1N2C(=O)NCCN1CCOCC1 | 10.5%
O=C(Nc1ccc(S(=O)(=O)Nc2cnc3ccccc3n2)cc1)c1cc(F)c(F)cc1Cl | 3.25%
O=C(NC(=S)NC1CCS(=O)(=O)C1)c1ccccc1 (centres unmarked) | 9.57%
CC1CCN(C(=O)c2cc(S(=O)(=O)N3CCCCC3)c[nH]2)CC1 | 15.9%
CC1CN(C2=NC(=O)/C(=C3/C(=O)N(Cc4ccc(F)cc4)c4ccccc43)S2)CC(C)O1 (centres unmarked) | 15.3%
CC1(C)C(c2cccs2)=NC(c2ccccc2)N1O (centres unmarked) | 7.94%
O=C(NCc1cccnc1)c1ccc(-c2ccc(Cl)cc2)o1 | -2.78%
S=C(Nc1ccc2nsnc2c1)N1CCCCCC1 | 10.6%
CCOc1ccc(-c2nnc3ccc(SC(C)C)nn23)cc1 | 3.92%
O=C(CCC1CCCN(C2C3CC4CC(C3)CC2C4)C1)NCc1ccc(F)c(F)c1 (centres unmarked) | -7.87%
CC(C)c1ccccc1OCC(O)CN(CC(O)COc1cccc2ccccc12)C(C)C (centres unmarked) | 8.32%
NC(=O)CN1C2CCC1CC(NC(=O)C1CC1)C2 (centres unmarked) | 18.3%
O=S(=O)(NCCS(=O)(=O)N1CCN(c2ccccc2)CC1)c1ccccc1 | 21.7%
CCOC(=O)Cn1cnc2c(sc3nc(C)cc(C)c32)c1=O | -3.76%
NCCCC[C@H]1CN=C(N)N1CC1CCCCC1 | 19.7%
CC1CCCC(NC(=O)CCC(=O)NCc2ccccc2)C1C (centres unmarked) | 14.5%
COc1cccc(-n2cnnn2)c1 | 5.38%
C[C@H](NC(=O)c1[nH]cnc1C(=O)Nc1ccc(Cl)cc1)C(=O)OC(C)(C)C | 21.6%
CC(C)(C)c1ccc(C(=O)N2CCN(CCNC(=O)C(=O)NCc3ccccc3)CC2)cc1 | -8.22%
NC(=O)c1cc([N+](=O)[O-])ccc1NCc1ccccn1 | -13.7%
Cc1cccc(CSC(Nc2ccc(F)cc2)=C(C#N)C#N)c1 | 6.21%
Cc1ccc(C(=O)N2CCN(c3ncccn3)CC2)cc1NC1=NC2CS(=O)(=O)CC2S1 (centres unmarked) | 12.3%
Cc1cc(SCC(=O)NC(=O)NCc2ccco2)nc2ccccc12 | 4.79%

SMILES | hERG current change (%, negative = inhibition) at 1uM
CC(C)CN(C(=O)COc1cccc(-n2cnnn2)c1)C1CCS(=O)(=O)C1 (centres unmarked) | -12.2%
COc1cccc(C(=O)Nc2ccccc2N2CCOCC2)c1 | 0.987%
CC(=O)Nc1ccc(NC(=O)CN(c2cccc(C)c2)S(C)(=O)=O)cc1 | -1.49%
CCN1C(=O)C(CC(=O)NCCc2ccccc2)N(NC(=O)c2cccnc2)C1=S (centres unmarked) | -13%
CC(C)(C)c1ccc(C(=O)NNc2cc(N3CCCCC3)nc(N3CCCCC3)n2)cc1 | 19.2%
Cc1ccc(C)c(NC(=O)c2cc3ccccc3o2)c1 | 5.49%
CC(C)(C)NCC(O)COc1cccc2c1C[C@H](O)[C@H](O)C2 (some centres unmarked) | 19.2%
O=C(NC(=S)Nc1cccc2cc(O)ccc12)c1ccccc1Br | 15%
O=C1CS(=O)(=O)c2ccccc2N1 | 16.2%
CS(=O)(=O)c1ccc(-c2nnc(NC(=O)c3ccc(S(=O)(=O)N4CCCC4)cc3)o2)cc1 | -2.12%
COc1ccccc1-c1cnnc(N/N=C/c2ccc(-c3cccc(Br)c3)o2)n1 | 13.5%
CCOC(=O)c1sc(NC(=O)CSc2nncn2C)nc1C | 10.1%
CCn1nc(C)cc1C(=O)Sc1cccc(Cl)c1 | 10.9%
Cc1cc(C)cc(NC(=O)NCc2nnc(SCc3ccccc3)n2C)c1 | 8.14%
COc1ccc(/C=C/c2cccc[n+]2C)c(O)c1.[I-] | 22.9%
Cc1ccc(-c2nn(-c3ccccc3)cc2C=O)o1 | 8.95%
Cc1n[nH]c(C)c1S(=O)(=O)N(CC(=O)NC1CCCC1)c1ccc(C(C)C)cc1 | 16.3%
COc1ccc(/C=C2/C(=O)N(c3cccc(F)c3)N=C2C)c(OC)c1 | 19.3%
CSCCC(NC(=O)c1ccccc1)C(=O)NC1CCCC1 (centres unmarked) | 4.81%
COc1ccc(N2C(=O)CCC(C(=O)NCCCN3CCC(C)CC3)C2c2ccc(OC)c(OC)c2)cc1 (centres unmarked) | 11.7%
CCOC(=O)C1(CC2CCCCO2)CCN(Cc2cc(F)ccc2-n2cccn2)CC1 (centres unmarked) | -14.9%
O=C(c1cc(=O)[nH]c2ccccc12)N1CCN(c2ccc([N+](=O)[O-])cc2)CC1 | -11.8%
CCN(CC)c1ccc(CNC(=O)C/C(C)=N/NC(=O)COc2ccc(C)cc2Br)cc1 | 5.4%

SMILES | hERG current change (%, negative = inhibition) at 1uM
COc1cc(C(=O)NCC(c2ccco2)N2CCCC2)ccc1OCc1c(C)noc1C (centres unmarked) | -8.45%
COC(=O)/C(=C1/Oc2cc(C)oc(=O)c2S1)C(F)(F)F | 13.6%
Cc1ccc(CN(C(=O)c2ccc(Cl)c([N+](=O)[O-])c2)C2CCS(=O)(=O)C2)o1 (centres unmarked) | 26.3%
Cc1cc(C(=O)Nn2c(C)nc3ccccc3c2=O)ccc1[N+](=O)[O-] | 10.7%
CC(C)N(c1ccccc1)c1ccc(NC(=O)CCl)cc1 | 3.04%
COc1cccc(CN2CCN(CCCc3ccccc3)C(CCO)C2)c1OC (centres unmarked) | -6.77%
CSc1ccc(CN2CCCCCC2)cc1 | 6.53%
CN(C)c1ccc(NC(=O)CC(NCc2ccccn2)C(=O)O)cc1 (centres unmarked) | 2.64%
CNC(=S)Nc1cccc(C(C)=O)c1 | 13.9%
COc1ccc(-c2csc(NC(=O)c3ccccc3OC)c2C(=O)O)cc1OC | 19.5%
Cc1cc(C(=O)COC(=O)c2ccc3c(c2)NC(=O)CS3)c(C)n1CCc1ccc(Cl)cc1 | 16.3%
CCOC(=O)c1c(S(=O)(=O)NCC(=O)Nc2ccc(OC)cc2)c(C)n(C)c1C | 18.9%
CC(C)(C)Cc1nnc(NC(=O)CN2C(=O)c3ccccc3C2=O)s1 | 11.5%
Cc1sc2nc(CSc3ncn[nH]3)[nH]c(=O)c2c1C | 2.82%
CCOc1cccc(C(=O)Nc2cccc(-c3nnc(-c4ccccc4)o3)c2)c1 | -0.681%
COc1ccc(OCC(=O)NC(=O)c2ccccc2OC)c([N+](=O)[O-])c1 | 5.26%
CCOC(=O)C1CCCCN1Cc1cccc(Oc2ccccc2)c1 (centres unmarked) | 9.41%
N#Cc1c(NC(=O)CSc2nc(N)cc(=O)[nH]2)sc2c1CCCC2 | 15.3%
O=C(Nc1cc(Cl)ccc1-n1cncn1)c1cccc(S(=O)(=O)N2CCOCC2)c1 | -12.7%
COCCN1C(=O)c2ccc(C(=O)NCc3cccnc3)cc2C1=O | 13.6%

Reference: publication PMC4336329 (PLoS ONE, 2015)
